# In PubChem BioAssay AID686979 (National Center for Advancing Translational Sciences (NCATS), 2013):
# Values joined by “and” are separate entries in the source; they are usually repeats but may differ in a detail not shown here. Equal values may be shown once. The campaign covered roughly 420,000 compounds. About 50,000 (12%) were called active. This list was built around the results that the source calls inconclusive (neither active nor inactive); the mix of calls is not that of the screen. The call rests on the fitted dose curve; in most records, active means well fitted inhibition curve with a large enough effect; inconclusive means small, poorly fitted or top-dose-only effect; inactive means flat fitted curve, though single readings scatter. Potencies of inconclusive entries are left out as doubtful fits. A structure can be active in one record and inactive in another.
# Assay: qHTS for Inhibitors of human tyrosyl-DNA phosphodiesterase 1 (TDP1): qHTS in cells in presence of CPT; further: nearly all actives have a fitted effect of over 55% in size
# Details: chicken DT40 Tdp1-/-;hTDP1 cells + 20 nM CPT, ATP luminescence, 48 h; series mostly up to 46.2 µM
# Summary of the method: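 Chicken DT40 Tdp1-/- cells stably complemented with human TDP1 were seeded at 400 cells/well in medium containing 20 nM camptothecin, exposed to pin-transferred compounds, and grown at 37 °C for at least 48 hr. Viability was read as ATP luminescence.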
# Potency means the concentration at half of the fitted maximal effect; tags describe the fitted curve by direction and shape.
row,Structure (SMILES),Potency
1,Cc1ccc(S(=O)(=O)c2nc(S(C)(=O)=O)sc2N2CCC(O)CC2)cc1,inactive
2,CC(C)(C)C(=O)CSc1nc(N)cc(=O)[nH]1,inactive
3,CCCN1CCC(=O)N([C@H](CSc2ccc(OC)cc2)CC(C)C)CC1,"inconclusive [inhibitor, single point]"
4,COc1ccc(C)cc1NC(=O)C(Cc1ccccc1)NS(=O)(=O)c1ccc(Br)s1 (centres undefined),"inconclusive [inhibitor, single point]"
5,CC(=O)N1CCN(C(=O)c2cccc(S(=O)(=O)Nc3ccc(C)cc3)c2)CC1,inactive
6,CC(OC(=O)C1CCN(S(=O)(=O)c2ccc3c(c2)OCCO3)CC1)C(=O)N(C)c1ccccc1 (centres undefined),"inconclusive [inhibitor, single point]"
7,Cc1ccc([C@@H]2CC(=O)[C@@H]3CN(S(=O)(=O)c4ccc(C)cc4)[C@H](c4ccccc4F)C[C@@H]3N2S(=O)(=O)c2ccc(Cl)cc2)cc1,inactive
8,NC(=S)NNC(=S)Nc1ccccc1,"inconclusive [inhibitor, single point]"
9,O=C(Nc1nc2cc3c(cc2s1)OCCO3)c1ccc([N+](=O)[O-])o1,active: 8.2 µM
10,CN1c2ccccc2C(C)(C)C12C=Cc1cc(O)ccc1O2 (centres undefined),active: 13 µM
11,Cc1cc(C(=O)COc2cc(F)ccc2[N+](=O)[O-])c(C)n1C1CC1,"inconclusive [inhibitor, single point]"
12,CCC[n+]1c(/C=C/c2c(OC)cc(OC)cc2OC)ccc2ccccc21,active: 0.112 µM
13,CC[N+](CC)(CC)CC(=O)Nc1c(C)cccc1C,inactive and active: 18.4 µM
14,Cc1cc(C)c(C)c(S(=O)(=O)N2CCN(C(=O)c3ccccc3OCc3c(C)noc3C)CC2)c1C,"inconclusive [inhibitor, single point]"
15,Cc1ccc(S(=O)Cc2ccc(C(=O)N3CCN(C(=O)c4ccco4)CC3)o2)cc1 (centres undefined),inactive
16,CCCCCCCCC/C(=N\O)c1ccccn1,active: 23.1 µM
17,Cc1ccc(CNc2nc3ccccc3s2)s1,inactive
18,Cc1ccc(S(=O)(=O)N2[C@@H](c3ccc(Br)cc3)C(C(=O)O)=CC[C@H]2c2ccc(Cl)c(Cl)c2)cc1,inactive
19,COc1ccc(NS(=O)(=O)c2ccc(NC(=O)c3ccccn3)cc2)cc1,"inconclusive [inhibitor, single point]"
20,COc1cccc(C(C)(O)c2nc(-c3cccc(C#N)c3)cs2)c1 (centres undefined),active: 18.4 µM
21,Cc1cc(Cl)ccc1NC(=O)CN1C(=O)COc2ccc(S(=O)(=O)Nc3ccccc3)cc21,"inconclusive [inhibitor, single point]"
22,Cn1cnc([N+](=O)[O-])c1S(=O)(=O)Oc1ccc(Cl)cc1,active: 0.651 µM
23,C[C@@H]1CN([C@H](C)CO)C(=O)CCCn2nncc2CO[C@@H]1CN(C)S(=O)(=O)c1cccc(F)c1,inactive
24,CSc1nnc(Cn2c(=O)sc3ccccc32)n1CCc1ccccc1,"inconclusive [inhibitor, single point]"
25,COc1cccc(Cn2c(SCc3ccc(C(=O)N4CCCCC4)cc3)nc3ccncc32)c1,"inconclusive [inhibitor, single point]"

row,Structure (SMILES),Potency
1,O=C(Nc1nc2n(n1)C(c1ccccc1)C=C(c1ccc(Cl)cc1)N2)c1ccco1 (centres undefined),active: 20.6 µM
2,O=C1/C(=C/c2ccccn2)SC(=S)N1Cc1ccccc1,inactive
3,C=C(C)Cn1c(SCC(=O)NCc2ccco2)nc2sc3c(c2c1=O)CCC3,"inconclusive [inhibitor, single point]"
4,COc1ccc(-n2nc(C(=O)NCC(=O)Nc3cccc(Cl)c3)c3ccccc3c2=O)cc1,"inconclusive [inhibitor, single point]"
5,CCOC(=O)C1=C(N)c2ccccc2CC1C(C)C (centres undefined),"inconclusive [inhibitor, single point]"
6,O=C(N/N=C/c1ccccc1Cl)c1n[nH]c2c1CCCC2,inactive
7,Fc1ccc(N=C2NN=C(c3cc(F)ccc3F)CS2)cc1,"inconclusive [inhibitor, single point]"
8,CCOc1ccccc1C(=O)NC(C(=O)N(C)Cc1ccc2c(c1)OCO2)C(C)C (centres undefined),active: 18.4 µM
9,O=C(Nc1ncccc1O)c1cc2ccccc2o1,"inconclusive [inhibitor, single point]"
10,Cc1ccc(CN(Cc2ccco2)C(=O)COc2cccc(C)c2C)o1,active: 16.4 µM
11,C/C(CC(=O)Nc1ccc(N(C)C)cc1)=N\NC(=O)Cc1csc(N)n1,"inconclusive [inhibitor, single point]"
12,CCc1c(C)nc2[nH]nc(-c3ccccc3C)n2c1=O,"inconclusive [inhibitor, single point]"
13,Cc1ccc(OCC(=O)NC2CCCC(C)C2C)c([N+](=O)[O-])n1 (centres undefined),"inconclusive [inhibitor, partial curve]"
14,Cc1ccc(NC(=O)C2(C)CCN2Cc2csc3ccccc23)cc1 (centres undefined),"inconclusive [inhibitor, single point]"
15,CC(C)CCOc1ccc(C(=O)NN2C(=O)NC3(CCCCC3)C2=O)cc1,"inconclusive [inhibitor, single point]"
16,Cn1cc(C(CO)Cc2ccccc2)c2ccccc21 (centres undefined),"inconclusive [inhibitor, single point]"
17,Cc1nc(N2CCN(c3ccccc3)CC2)nc2c1C(=O)CC(C)C2 (centres undefined),"inconclusive [inhibitor, single point]"
18,C(=C\c1ccncc1)/c1ccccc1,inactive
19,CCC(Sc1nc2ccccc2c(=O)[nH]1)C(=O)Nc1ccc(C(C)=O)cc1 (centres undefined),inactive
20,CC(C)(Oc1ccc(Cl)cc1)C(=O)NCc1ccco1,"inconclusive [inhibitor, single point]"
21,CC(=O)c1cccc(NC(=O)c2cc(-c3ccco3)nc3ccccc23)c1,active: 13 µM
22,COc1ccc(C(=O)c2coc3c2C(=O)C(=O)c2ccccc2-3)cc1,active: 2.59 µM
23,COc1ccc(OCC(=O)N/N=C/c2cccc3cccnc23)cc1,"inconclusive [inhibitor, single point]"
24,CN(C)c1ccc(N/C=C/C(=O)c2ccc(F)cc2)cc1,"inconclusive [inhibitor, single point]"
25,Oc1[nH]c2ccc(Br)cc2c1N=Nc1ccc(C(F)(F)F)cn1,"inconclusive [inhibitor, single point]"

row,Structure (SMILES),Potency
1,COc1ccc(N=c2nc(-c3ccccc3)n(-c3ccc(C)cc3)s2)cc1,active: 4.47 µM
2,CC(=O)c1cccc(-n2c(=O)c3c4c(sc3n(CC(=O)Nc3ccccc3F)c2=O)CN(C(C)=O)CC4)c1,inactive
3,O=C(CSc1nc2ccccc2c(=O)n1-c1ccc(F)cc1F)Nc1ccc2c(c1)CCC2,"inconclusive [inhibitor, single point]"
4,Cc1ccc(-c2nnc(-c3ccc4ccccc4c3)o2)cc1,"inconclusive [inhibitor, single point]"
5,O=C(COc1ccc([N+](=O)[O-])cc1)N1CCC(c2nc3ccccc3s2)CC1,active: 7.31 µM
6,CCOc1ccc(NC(=S)NNc2ccnc3cc(Cl)ccc23)cc1,"inconclusive [inhibitor, single point]"
7,COc1ccc(OC)c2[nH]c(=O)c(CCNC(=O)COc3ccccc3)cc12,"inconclusive [inhibitor, single point]"
8,Cc1ccc2ncccc2c1NC(=S)NC(=O)c1ccccc1,"inconclusive [inhibitor, single point]"
9,NC1=NC(c2ccc(F)cc2)n2c(nc3ccccc32)N1 (centres undefined),inactive
10,COc1cc(C(=O)N2CCCCC2c2cc(C(=O)NCc3cccnc3)no2)cc(OC)c1C (centres undefined),inactive
11,O=C(O)/C=C/C(=O)NC1CC1,inactive
12,COc1ccc(/C=N/Nc2nonc2N)cc1,inactive
13,CCOc1cccc(CN2CCN(CCCc3ccccc3)C(CCO)C2)c1O (centres undefined),"inconclusive [inhibitor, single point]"
14,O=C(N/N=C/c1ccc(-c2cccc([N+](=O)[O-])c2)o1)[C@H]1C[C@@H]1c1ccccc1,active: 29.1 µM
15,CCCCCCCCNCCS(=O)(=O)NC1CCCCC1,"inconclusive [inhibitor, single point]"
16,CCOc1cc(C(=O)Nc2ccccc2N2CCN(S(C)(=O)=O)CC2)cc(OCC)c1OCC,"inconclusive [inhibitor, single point]"
17,CCOC(=O)Cn1c(=O)c2c(nc(N3CCOCC3)n2Cc2ccccc2)n(C)c1=O,"inconclusive [inhibitor, single point]"
18,COC(=O)Cn1c2ccc(F)cc2c2nc(C)sc21,inactive
19,O=S(=O)(NCCCN1CCOCC1)c1ccc(Cl)s1,"inconclusive [inhibitor, single point]"
20,CCOc1ccc(NC(=O)CSc2nnc(C)n2CC)cc1,inactive
21,Cc1ccsc1C(=O)NCCc1ccc(S(N)(=O)=O)cc1,inactive
22,O=C(CSc1nc2nn(-c3ccccc3)c(=O)c-2c2n1CCCCC2)Nc1ccccc1[N+](=O)[O-],active: 20.6 µM
23,O=C(NCC1CCCO1)c1cc(-c2ccc(Cl)cc2Cl)on1 (centres undefined),"inconclusive [inhibitor, single point]"
24,CCc1cccc(Nc2c([N+](=O)[O-])cc(C(=O)N3CC(=O)Nc4ccccc43)cc2[N+](=O)[O-])c1,"inconclusive [inhibitor, single point]"
